The list shows a part of the results.

The subject of one experiment is HSkMC. Briefly: cytotoxicity call (relative viability < 0.9). The following applies: 10 µM.
A further experiment deals with S. aureus RN4220. Description: growth inhibition call (relative growth <= 0.2). Conditions: 50 µM.

Turning to `C[C@H]1CN([C@@H](C)CO)C(=O)c2cccc(NC(=O)CCCCCC(=O)Nc3ccccc3N)c2O[C@@H]1CN(C)C(=O)Nc1ccc(C(F)(F)F)cc1`, the cytotoxicity call in the experiment with HSkMC was “inactive”. In the experiment on S. aureus RN4220, the growth inhibition call was “inactive”.
For `C[C@H]1CN([C@@H](C)CO)C(=O)Cc2cc(NS(=O)(=O)c3cccs3)ccc2O[C@@H]1CN(C)Cc1ccc(Oc2ccccc2)cc1`, the cytotoxicity call in the experiment with HSkMC was “inactive”. The growth inhibition call with S. aureus RN4220 was “inactive”.
Turning to `C[C@@H]1CN([C@@H](C)CO)C(=O)c2cc(NS(=O)(=O)c3cccs3)ccc2O[C@@H](C)CCCCO[C@@H]1CN(C)S(=O)(=O)c1cn(C)cn1`, the cytotoxicity call in the experiment with HSkMC was “inactive”. Also, in the experiment on S. aureus RN4220, the growth inhibition call was “inactive”.
As for `C[C@H](CO)N1C[C@H](C)[C@H](CN(C)Cc2ccccc2)Oc2ccc(NC(=O)CCCCCC(=O)Nc3ccccc3N)cc2C1=O`, in the experiment on HSkMC, the cytotoxicity call was “inactive”. Moreover, the growth inhibition call in the experiment with S. aureus RN4220 is “inactive”.
Regarding `C[C@H](CO)N1C[C@H](C)[C@H](CN(C)C(=O)Nc2ccccc2)Oc2ccc(NC(=O)C3CC3)cc2CC1=O`, in the experiment on HSkMC, the cytotoxicity call is “inactive”. Also, in the experiment on S. aureus RN4220, the growth inhibition call is “inactive”.
For the molecule `C[C@H](CO)N1C[C@H](C)[C@H](CN(C)S(=O)(=O)c2cccs2)OCCCC[C@H](C)Oc2ccc(NC(=O)NC3CCCCC3)cc2C1=O`, in the experiment with HSkMC, the cytotoxicity call was “inactive”. In the experiment with S. aureus RN4220, the growth inhibition call was “inactive”.
Consider `CCOC(=O)c1c(CN2CCN(Cc3ccccc3)CC2)n(-c2ccccc2)c2cc(Br)c(OC)cc12`, for which the cytotoxicity call in the experiment on HSkMC was “inactive”. Besides, in the experiment on S. aureus RN4220, the growth inhibition call is “inactive”.
`C=CCOC(=O)[C@@H]1[C@H]2C(=O)O[C@H](c3ccccc3)[C@H](c3ccccc3)N2[C@H](c2ccc(OCCOC(=O)[C@H]3C[C@H]4C(=O)NCC(=O)N4[C@H]3c3cccc(OCCO)c3)cc2)[C@@]12C(=O)Nc1ccc(I)cc12`: in the experiment with HSkMC, the cytotoxicity call was “inactive”. For the same molecule, the growth inhibition call in the experiment with S. aureus RN4220 was “inactive”.
With `O=C([O-])C=CC(=O)[O-].[Fe+2]`, the cytotoxicity call with HSkMC was “inactive”. Besides, the growth inhibition call with S. aureus RN4220 is “inactive”.
In the case of `C[C@H](CO)N1C[C@H](C)[C@H](CN(C)S(=O)(=O)c2ccc(F)cc2)Oc2c(NS(=O)(=O)c3ccc(F)cc3)cccc2C1=O`, the cytotoxicity call in the experiment on HSkMC was “inactive”. Also, the growth inhibition call in the experiment with S. aureus RN4220 is “inactive”.
Consider `O=C(C[C@H]1C=C[C@H](NC(=O)CN2CCOCC2)[C@@H](CO)O1)NCc1cccc(F)c1`, for which the cytotoxicity call in the experiment on HSkMC was “inactive”. Moreover, the growth inhibition call with S. aureus RN4220 was “inactive”.
Consider `C[C@@H]1CCCCO[C@H](CN(C)Cc2ccc3c(c2)OCO3)[C@@H](C)CN([C@H](C)CO)C(=O)c2cc(NC(=O)Nc3ccc4c(c3)OCO4)ccc2O1`, for which the cytotoxicity call in the experiment with HSkMC was “inactive”. For the same molecule, the growth inhibition call in the experiment on S. aureus RN4220 is “inactive”.
Turning to `O=C1c2ccccc2[C@@]2(Cc3ccccc3N(C3CC3)C2=O)[C@H](c2ccc(CO)cc2)N1Cc1ccccc1Cl`, in the experiment on HSkMC, the cytotoxicity call was “inactive”. The growth inhibition call with S. aureus RN4220 is “inactive”.
As to `NC(Cc1cc(I)c(Oc2ccc(O)c(I)c2)c(I)c1)C(=O)O` (stereo unspecified), the cytotoxicity call in the experiment on HSkMC is “inactive”. The growth inhibition call in the experiment with S. aureus RN4220 is “inactive”.
Regarding `CN1C(=O)[C@@H](O)N(c2ccccc2)C1=O`, in the experiment with HSkMC, the cytotoxicity call was “inactive”. Besides, the growth inhibition call in the experiment on S. aureus RN4220 was “inactive”.
For the molecule `C[C@H]1CN([C@@H](C)CO)C(=O)c2cc(NC(=O)Cc3ccccc3)ccc2O[C@H]1CN(C)S(=O)(=O)c1cn(C)cn1`, in the experiment with HSkMC, the cytotoxicity call was “inactive”. The growth inhibition call with S. aureus RN4220 was “inactive”.
On to `C/C=C/c1ccc2c(c1)O[C@H](CN(C)S(=O)(=O)c1ccc(F)cc1)[C@H](C)CN([C@H](C)CO)S2(=O)=O`, for which the cytotoxicity call with HSkMC is “inactive”. In addition, the growth inhibition call in the experiment on S. aureus RN4220 is “inactive”.
As to `C[C@@H]1CN([C@H](C)CO)C(=O)c2cc(C#C[C@@H](C)O)cnc2O[C@@H]1CN(C)C(=O)CN1CCOCC1`, in the experiment with HSkMC, the cytotoxicity call was “inactive”. In addition, in the experiment on S. aureus RN4220, the growth inhibition call is “inactive”.
In the case of `CC(=O)Nc1nonc1N1CCCC1=O`, in the experiment with HSkMC, the cytotoxicity call was “inactive”. In addition, the growth inhibition call with S. aureus RN4220 is “inactive”.
On to `CN(C)c1nc2c([nH]1)c(=O)[nH]c(=O)n2C`, for which the cytotoxicity call with HSkMC is “inactive”. Also, the growth inhibition call in the experiment on S. aureus RN4220 is “inactive”.
Regarding `CO[C@H]1CN(C)C(=O)c2cc(NC(=O)Nc3ccccc3)ccc2OC[C@@H](C)N(C(=O)CN(C)C)C[C@@H]1C`, the cytotoxicity call with HSkMC is “inactive”. The growth inhibition call in the experiment on S. aureus RN4220 was “inactive”.
As for `O=C(O)/C=C\C(=O)NCc1ccccc1`, the cytotoxicity call with HSkMC was “inactive”. The growth inhibition call in the experiment on S. aureus RN4220 is “inactive”.
On to `C[C@@H]1CN([C@@H](C)CO)C(=O)c2cccc(NS(C)(=O)=O)c2O[C@@H]1CN(C)Cc1ccc(C(F)(F)F)cc1`, for which the cytotoxicity call in the experiment with HSkMC was “inactive”. In addition, in the experiment on S. aureus RN4220, the growth inhibition call is “inactive”.
Turning to `CC(C)NC(=O)N[C@H]1C=C[C@H](CC(=O)NCCCN(C)C)O[C@@H]1CO`, the cytotoxicity call in the experiment on HSkMC was “inactive”. In addition, the growth inhibition call in the experiment with S. aureus RN4220 is “inactive”.
On to `Cc1noc(C)c1S(=O)(=O)Nc1ccc2c(c1)C(=O)N([C@H](C)CO)C[C@H](C)[C@@H](CN(C)Cc1ccc(Cl)c(Cl)c1)OCCCC[C@@H](C)O2`, for which the cytotoxicity call in the experiment with HSkMC was “inactive”. Moreover, the growth inhibition call in the experiment on S. aureus RN4220 is “inactive”.
With `C[C@H](CO)N1C[C@H](C)[C@H](CN(C)Cc2ccc(Cl)c(Cl)c2)Oc2ccc(NC(=O)Nc3ccccc3)cc2C1=O`, the cytotoxicity call in the experiment with HSkMC was “inactive”. Besides, the growth inhibition call in the experiment with S. aureus RN4220 is “inactive”.
For the molecule `C[C@@H]1CN([C@@H](C)CO)S(=O)(=O)c2ccc(C#CC(C)(C)O)cc2O[C@H]1CN(C)Cc1ccc(F)cc1`, in the experiment with HSkMC, the cytotoxicity call is “inactive”. The growth inhibition call in the experiment with S. aureus RN4220 is “inactive”.
As for `C[C@@H]1CCCCO[C@@H](CN(C)S(=O)(=O)c2ccccc2)[C@H](C)CN([C@H](C)CO)C(=O)c2cc(NC(=O)c3ccccc3)ccc2O1`, in the experiment on HSkMC (human skeletal muscle cells), the cytotoxicity call is “inactive”. The growth inhibition call with S. aureus RN4220 is “inactive”.

(Values after the antibiotic and cytotoxicity screens of Wong et al. (2023).)
